Measured values reported in patent US10538555B2, “Macrocyclic inhibitors of the PD-1/PD-L1 and CD80(B7-1)/PD-L1 protein/protein interactions” (BRISTOL-MYERS SQUIBB COMPANY, priority 2014, dated 2020).
At least one compound was matched to its structure with a doubt left. Where a SMILES comes first, the peptide text is derived from it. Bridges are numbered along the chain shown (N, C = ends). [ ]: non-standard residue; d: D form. Trp(1-CH2COOH) = N[C@@H](Cc1cn(CC(=O)O)c2ccccc12)C(=O)O; Bta = N[C@@H](Cc1csc2ccccc12)C(=O)O; NMe4Pal = CN[C@@H](Cc1ccncc1)C(=O)O; Hyp = O=C(O)[C@@H]1C[C@@H](O)CN1; NMeF = CN[C@@H](Cc1ccccc1)C(=O)O; NMeNle = CCCC[C@H](NC)C(=O)O; dPip = O=C(O)[C@H]1CCCCN1; NMeA = CN[C@@H](C)C(=O)O; Orn = NCCC[C@H](N)C(=O)O; Dab = NCC[C@H](N)C(=O)O

Target: T1, Human PD-L1/PD-1 (Homo sapiens, UniProt Q9NZQ7)
T1 construct: TVMV protease cleavage site (C); made in house; host or cells: HEK293T cells
Assay: HTRF Human PD-L1/PD-1 binding assay (PD-1-Ig/PD-L1-His)
Details: PD-L1-His 10 nM, PD-1-Ig 20 nM; class symbol; read-out: HTRF Human PD-L1/PD-1 Binding Assay IC50 Range
Excerpt: Methods for Testing the Ability of Macrocyclic Peptides to Compete for the Binding of PD-1 to PD-L1 Using Homogenous Time-Resolved Fluorescence (HTRF) Binding Assays
The ability of the macrocyclic peptides of the present disclosure to bind to PD-L1 was investigated using a PD-1/PD-L1 Homogenous Time-Resolved Fluorescence (HTRF) binding assay.
Homogenous Time-Resolved Fluorescence (HTRF) Assays of Binding of Soluble PD-1 to Soluble PD-L1. Soluble PD-1 and soluble PD-L1 refers to proteins with carboxyl-end truncations that remove the transmembrane-spanning regions and are fused to heterologous sequences, specifically the Fc portion of the human immunoglobuling G sequence (Ig) or the hexahistidine epitope tag (His). All binding studies were performed in an HTRF assay buffer consisting of dPBS supplemented with 0.1% (w/v) bovine serum albumin and 0.05% (v/v) Tween-20. For the PD-1-Ig/PD-L1-His binding assay, inhibitors were pre-incubated with PD-L1-His (10 nM final) for 15 m in 4 μl of assay buffer, followed by addition of PD-1-Ig (20 nM final) in 1 μl of assay buffer and further incubation for 15 m. PD-L1 fusion proteins from either human, cynomolgus macaques, or mouse were used. HTRF detection was achieved using europium crypate-labeled anti-Ig monoclonal antibody (1 nM final) and allophycocyanin (APC) labeled anti-His monoclonal antibody (20 nM final). Antibodies were diluted in HTRF detection buffer and 5 μl was dispensed on top of binding reaction. The reaction was allowed to equilibrate for 30 minutes and signal (665 nm/620 nm ratio) was obtained using an EnVision fluorometer. Additional binding assays were established between PD-1-Ig/PD-L2-His (20 and 5 nM, respectively), CD80-His/PD-L1-Ig (100 and 10 nM, respectively) and CD80-His/CTLA4-Ig (10 and 5 nM, respectively). Competition studies between biotinylated Compound No. 71 and human PD-L1-His were performed as follows. Macrocyclic peptide inhibitors were pre-incubated with PD-L1-His (10 nM final) for 60 minutes in 4 μl of assay buffer followed by addition of biotinylated Compound No. 71 (0.5 nM final) in 1 μl of assay buffer. Binding was allowed to equilibrate for 30 minutes followed by addition of europium crypated labeled Streptavidin (2.5 pM final) and APC-labeled anti-His (20 nM final) in 5 μl of HTRF buffer. The reaction was allowed to equilibrate for 30 m and signal (665 nm/620 nm ratio) was obtained using an EnVision fluorometer.
Recombinant Proteins. Carboxyl-truncated human PD-1 (amino acids 25-167) with a C-terminal human Ig epitope tag [hPD-1 (25-167)-3S-IG] and human PD-L1 (amino acids 18-239) with a C-terminal His epitope tag [hPD-L1([…])-tobacco vein mottling virus protease cleavage site (TVMV)-His] were expressed in HEK293T cells and purified sequentially by rProteinA affinity chromatography and size exclusion chromatography.

T1 sequence (Q9NZQ7 with tags, fused parts or gaps): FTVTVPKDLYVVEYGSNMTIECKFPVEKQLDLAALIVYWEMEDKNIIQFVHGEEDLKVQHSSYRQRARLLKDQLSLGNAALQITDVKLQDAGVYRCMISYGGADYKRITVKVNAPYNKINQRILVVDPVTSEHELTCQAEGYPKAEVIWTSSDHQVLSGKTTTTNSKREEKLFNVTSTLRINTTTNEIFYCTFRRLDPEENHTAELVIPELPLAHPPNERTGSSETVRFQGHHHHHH

| Compound | IC50 |
| --- | --- |
| CCCC[C@H]1C(=O)N2C[C@H](O)C[C@@H]2C(=O)N[C@@H](CC(=O)O)C(=O)N[C@@H](C(C)C)C(=O)N(C)[C@@H](Cc2ccccc2)C(=O)N[C@@H](CC(N)=O)C(=O)N2C[C@H](O)C[C@@H]2C(=O)N[C@@H](Cc2c[nH]c3ccccc23)C(=O)N[C@@H](Cc2ccc(O)cc2)C(=O)N[C@@H](CC(C)C)C(=O)N[C@H](C(=O)NCC(N)=O)CSCC(=O)N[C@@H](Cc2ccc(F)c(F)c2)C(=O)N(C)[C@@H](Cc2ccccc2)C(=O)N1C (single isomer, unassigned) [Example 9293] | 1 to 9.9 nM |
| CCCC[C@H]1C(=O)N2C[C@H](O)C[C@@H]2C(=O)N[C@@H](CC(=O)O)C(=O)N[C@@H](C(C)C)C(=O)N(C)[C@@H](Cc2ccccc2)C(=O)N[C@@H](CC(N)=O)C(=O)N2C[C@H](O)C[C@@H]2C(=O)N[C@@H](Cc2c[nH]c3ccccc23)C(=O)N[C@@H](Cc2ccc(O)cc2)C(=O)N[C@@H](CCCN)C(=O)N[C@H](C(=O)NCC(N)=O)CSCC(=O)N[C@@H](Cc2ccc(F)c(F)c2)C(=O)N(C)[C@@H](Cc2ccccc2)C(=O)N1C (single isomer, unassigned) [Example 9305] | 10 to 99.9 nM |
| CCCC[C@H]1C(=O)N2CCC[C@@H]2C(=O)N[C@@H](CC(N)=O)C(=O)N[C@@H](C(C)C)C(=O)N(C)[C@@H](Cc2ccccc2)C(=O)N[C@@H](Cc2ccc(O)cc2)C(=O)N2CCCC[C@@H]2C(=O)N[C@@H](Cc2c[nH]c3ccccc23)C(=O)N[C@@H](Cc2ccc(O)cc2)C(=O)N[C@@H](CCCN)C(=O)N[C@H](C(=O)NCC(N)=O)CSCC(=O)N[C@@H](Cc2ccccc2)C(=O)N(C)[C@@H](Cc2ccncc2)C(=O)N1C [Example 3637] ({CH2CO}-F[NMe4Pal][NMeNle][dP]NV[NMeF]Y[dPip]WY[Orn]CG-NH2; thioether N-13) | 1 to 9.9 nM |
| CCCC[C@H]1C(=O)N(C)[C@@H](CCCC)C(=O)N[C@@H](CCCNC(=N)N)C(=O)N[C@H](C(=O)NCC(N)=O)CSCC(=O)N[C@@H](Cc2ccc(O)cc2)C(=O)N(C)[C@@H](C)C(=O)N[C@@H](CC(N)=O)C(=O)N2CCC[C@H]2C(=O)N[C@@H](Cc2c[nH]cn2)C(=O)N[C@@H](CCCCN)C(=O)N2C[C@H](O)C[C@H]2C(=O)N[C@@H](Cc2c[nH]c3ccccc23)C(=O)N[C@@H](CO)C(=O)N[C@@H](Cc2csc3ccccc23)C(=O)N1C [Example 5148] ({CH2CO}-Y[NMeA]NPHK[Hyp]WS[Bta][NMeNle][NMeNle]RCG-NH2; thioether N-14) | 1 to 9.9 nM |
| CCCC[C@H]1C(=O)N(C)[C@@H](CCCC)C(=O)N[C@@H](CCC(=O)O)C(=O)N[C@H](C(=O)NCC(N)=O)CSCC(=O)N[C@@H](Cc2ccc(O)cc2)C(=O)N(C)[C@@H](C)C(=O)N[C@@H](CC(N)=O)C(=O)N2CCC[C@H]2C(=O)N[C@@H](CO)C(=O)N[C@@H](CC(C)C)C(=O)N2C[C@H](O)C[C@H]2C(=O)N[C@@H](Cc2c[nH]c3ccccc23)C(=O)N[C@@H](CO)C(=O)N[C@@H](Cc2c[nH]c3ccccc23)C(=O)N1C [Example 5151] ({CH2CO}-Y[NMeA]NPSL[Hyp]WSW[NMeNle][NMeNle]ECG-NH2; thioether N-14) | 10 to 99.9 nM |
| CCCC[C@H]1C(=O)N(C)[C@@H](CCCC)C(=O)N[C@@H](CC(C)C)C(=O)N[C@H](C(=O)NCC(N)=O)CSCC(=O)N[C@@H](Cc2ccc(O)cc2)C(=O)N(C)[C@@H](C)C(=O)N[C@@H](CC(=O)O)C(=O)N2CCC[C@H]2C(=O)N[C@@H](Cc2cnc[nH]2)C(=O)N[C@@H](CCC(N)=O)C(=O)N2C[C@H](O)C[C@H]2C(=O)N[C@@H](Cc2c[nH]c3ccccc23)C(=O)N[C@@H](CCN)C(=O)N[C@@H](Cc2cn(CC(=O)O)c3ccccc23)C(=O)N1C [Example 5155] ({CH2CO}-Y[NMeA]DPHQ[Hyp]W[Dab][Trp(1-CH2COOH)][NMeNle][NMeNle]LCG-NH2; thioether N-14) | 1 to 9.9 nM |
